Measurements as given in the supplement of paper PMC4166925.
± gives the standard deviation of the averaged measurements. Over roughly 33,000 sequences, “E-score (dimensionless, -0.5 to 0.5)” has its median near -0.046; the highest 2% begin near 0.36. This is one part of the list.

Tested on: T1, SpTbr T-box DNA-binding domain (GST fusion)
T1 sequence: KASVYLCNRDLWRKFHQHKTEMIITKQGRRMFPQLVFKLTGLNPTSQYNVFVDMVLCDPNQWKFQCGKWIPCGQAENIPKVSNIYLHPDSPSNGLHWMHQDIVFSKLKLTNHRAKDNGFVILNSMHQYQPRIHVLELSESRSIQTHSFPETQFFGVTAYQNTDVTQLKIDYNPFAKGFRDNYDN
Assay: PBM E-score of 8-mer (E-score (dimensionless, -0.5 to 0.5)); Tbr is Tbrain of the sea star Patiria miniata (Pm) or the sea urchin Strongylocentrotus purpuratus (Sp); higher = stronger binding preference; most listed sequences are background and not binding sites
Conditions: the construct has about 5 more residues each side
Summary of the method: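 Using the Universal PBM Analysis Suite, every ungapped 8-mer received an enrichment E-score averaged over duplicate arrays. Probe intensities came from double-stranded Universal Agilent oligonucleotide arrays incubated with 200 nM GST-fused Tbr T-box DNA-binding domain in PBS (pH 7.5). That protein was expressed in BL21 E. coli at 20 °C and purified by glutathione affinity chromatography.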

Point of comparison: AAATGTTA, “PBM E-score of 8-mer” value -0.041 ± 0.04. Against it:
- GATGCATA — within error, -0.126 ± 0.046
- ACTGGTGA — within error, -0.0975 ± 0.042
- CCCCCCCA — lower, -0.246 ± 0.0029
- CACTCTCC — higher, 0.0753 ± 0.021
- CAAGATAG — lower, -0.156 ± 0.0096
- GGTACAGA — lower, -0.122 ± 0.029
- CATCCTGC — lower, -0.379 ± 0.033
- GCGATTAC — higher, 0.0367 ± 0.017
- GACCGCGA — higher, 0.232 ± 0.035
- CCACTCAC — higher, 0.256 ± 0.023
- GCGTGAGA — higher, 0.361 ± 0.03
- ATTTTTGC — within error, 0.0641 ± 0.1
- AACCTTTC — within error, -0.0391 ± 0.099
- ATTGTCGG — within error, 0.0284 ± 0.068
- CGGAAAAG — lower, -0.0916 ± 0.01
- AACCAGCA — lower, -0.199 ± 0.019
- CTAGAGCC — within error, -0.0664 ± 0.059
- CCACAACC — higher, 0.113 ± 0.015
- AAGAGAGT — lower, -0.132 ± 0.011
- CAATATTC — within error, -0.0313 ± 0.033
- CCAGGAAC — within error, -0.00602 ± 0.037
- ATGCGGGG — lower, -0.179 ± 0.033
- CTCATTTA — lower, -0.14 ± 0.042
- AGGTCCAA — within error, -0.0715 ± 0.012
- CAGGATAA — within error, 0.00792 ± 0.035
- AACGGATT — lower, -0.136 ± 0.035
- TCAAGGCA — lower, -0.138 ± 0.0075
- GCAATGGC — higher, 0.0976 ± 0.015
- CCTCGGAG — lower, -0.165 ± 0.018
- AGCCAGAA — lower, -0.268 ± 0.024
- AGACAGTC — lower, -0.158 ± 0.045
- AACTGAAG — within error, -0.0561 ± 0.068
- CTCGGGAC — within error, -0.118 ± 0.062
- ACTGGGCG — within error, -0.0637 ± 0.022
- ACGGTGCA — higher, 0.13 ± 0.026
- TACTGTGA — higher, 0.314 ± 0.024
- ACGTTGTA — within error, -0.029 ± 0.054
- GGGACACC — higher, 0.226 ± 0.042
- CAAGTGCC — higher, 0.266 ± 0.0062
- ACCGATAG — within error, -0.0394 ± 0.053
- CCGGACCG — within error, -0.101 ± 0.056
- TACAAAGA — lower, -0.223 ± 0.0075
- AGCAATCC — within error, -0.0593 ± 0.014
- GCTTGAAC — lower, -0.266 ± 0.079
- CATCAGAG — lower, -0.217 ± 0.047
- CCGGCGGA — lower, -0.222 ± 0.012
- CGTCCGCC — within error, -0.0511 ± 0.055
- GATGCGGA — lower, -0.151 ± 0.044
- CCTGGAAC — lower, -0.309 ± 0.035
- GGGTGCAC — within error, 0.00383 ± 0.095
- CCAGATCA — higher, 0.0835 ± 0.014
- GTCTCTCA — higher, 0.0648 ± 0.045
- ATAATACC — within error, -0.0993 ± 0.047
- AGGTCAAC — lower, -0.223 ± 0.042
- CCTGGCCA — lower, -0.158 ± 0.011
- ATCGTCGA — higher, 0.179 ± 0.044
- GCTAGAAC — higher, 0.0971 ± 0.024
- GGGCTGCA — lower, -0.128 ± 0.04
- GGCTGTAC — within error, 0.00775 ± 0.014
- ATCGACCC — within error, -0.0152 ± 0.019
- AAGGATGG — lower, -0.304 ± 0.033
- GGTAATGA — within error, -0.087 ± 0.063
- CAAATTAG — within error, -0.0851 ± 0.049
- ACTGTCCC — within error, -0.0468 ± 0.018
- AAGAGGGC — within error, -0.109 ± 0.052
- TAGTCGCA — higher, 0.112 ± 0.096
- CGAATGCG — lower, -0.108 ± 0.013
- CTCAGCCA — lower, -0.142 ± 0.005
- TAATAAAA — lower, -0.25 ± 0.049
- GCCAAAAC — within error, 0.0461 ± 0.055
- CACACCCG — higher, 0.448 ± 0.016
- CAGGGCCA — within error, -0.0997 ± 0.041
- CTGATTTC — lower, -0.257 ± 0.055
- AACGCTAT — within error, -0.0149 ± 0.077
- ACGATCCT — within error, 0.00609 ± 0.019
- AAGTTATG — within error, -0.0757 ± 0.043
- ATCTACGA — lower, -0.231 ± 0.04
- ACTGGGAA — within error, -0.0794 ± 0.024
- GAAGTATC — higher, 0.0631 ± 0.006
- ACGTGAGT — within error, 0.0167 ± 0.024
- CAACCAGG — within error, 0.00242 ± 0.011
- ACCTATAT — higher, 0.103 ± 0.077
- AGAGCACA — within error, -0.129 ± 0.05
- TACGACCA — lower, -0.249 ± 0.12
- AATCGCTC — within error, -0.00889 ± 0.0063
